# Data taken from PubChem BioAssay AID686979 (National Center for Advancing Translational Sciences (NCATS), 2013).
# In all, about 420,000 compounds went through this assay and about 50,000 (12%) were called active. The shares of active, inactive and inconclusive entries below differ from those in the screen. The call rests on the fitted dose curve; in most records, active means well fitted inhibition curve with a large enough effect; inconclusive means small, poorly fitted or top-dose-only effect; inactive means flat fitted curve, though single readings scatter. Potencies of inconclusive entries are left out as doubtful fits.
# Experiment: qHTS for Inhibitors of human tyrosyl-DNA phosphodiesterase 1 (TDP1): qHTS in cells in presence of CPT; further: nearly all actives have a fitted effect of over 55% in size
# Details: chicken DT40 Tdp1-/-;hTDP1 cells + 20 nM CPT, ATP luminescence, 48 h; activity change, negative = growth inhibition: at 46.2 µM (top of the series)
# Outline: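 Chicken DT40 Tdp1-/- cells stably complemented with human TDP1 were seeded at 400 cells/well in medium containing 20 nM camptothecin, exposed to pin-transferred compounds, and grown at 37 °C for at least 48 hr. Viability was read as ATP luminescence.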
# On the % scale 0 is the no-effect control and ±100 the full control effect; potency means the concentration at half of the fitted maximal effect; tags describe the fitted curve by direction and shape.
SMILES,Potency,"activity change, negative = growth inhibition"
Cc1ccccc1OCC(O)CN1CCN(CC(O)COc2ccccc2C)C(C)C1 (centres undefined),"inconclusive [inhibitor, single point]",
CCOC(=O)c1cc(-c2ccco2)nc2c1c(C)nn2CCC#N,"inconclusive [inhibitor, single point]",
CC(=O)/C(=N/Nc1ccccc1)Sc1nnc(C(O)c2ccccc2)n1-c1ccccc1 (centres undefined),"inconclusive [inhibitor, single point]",
COc1cc(NC(=S)NCCc2ccccc2)c(OC)cc1NC(=O)CC(C)C,"inconclusive [inhibitor, single point]",
CCCC(=O)Nc1nnc(SCC(=O)Nc2ccc3c(c2)OCCO3)s1,"inconclusive [inhibitor, single point]",
O=C(Nc1nc2ccccc2[nH]1)c1cccs1,,inconclusive: -35.1% [inhibitor]
CSc1c(CC(=O)Nc2ccccc2)n(C)c2ccccc12,active: 14.6 µM,
CN1CCN(C(=S)C(=O)Nc2ccc(Br)cc2)CC1,active: 13 µM,
CCCCSc1nc(C)c(C(C)=O)cc1C#N,inactive,
Cc1cccc(NC(=O)CSc2nc(=O)n(CCN3CCOCC3)c3c2CCC3)c1,inactive,
COc1ccc(/C=N/NC(=S)Nc2ccccc2)cc1COc1ccc(Br)cc1,active: 14.6 µM,
COc1ccccc1OCCNC(=O)Nc1cc(F)c(F)cc1Cl,inactive,
COc1cc2c(cc1OC)C(C)N(C(=O)c1cccc([N+](=O)[O-])c1)CC2 (centres undefined),"inconclusive [inhibitor, single point]",
O=c1[nH]c(SCc2nc3c(cnn3-c3ccccc3)c(=O)[nH]2)nc2ccccc12,"inconclusive [inhibitor, single point]",
COc1ccc(-c2nnc(SCC(=O)c3cccs3)n2-c2ccc(Cl)cc2)cc1,"inconclusive [inhibitor, single point]",
Cc1ccc(-n2nc(C)c(C(=O)N3CCN(C(=O)c4ccco4)CC3)c2-n2cccc2)cc1,"inconclusive [inhibitor, single point]",
COc1cc(NC(=O)c2cc([N+](=O)[O-])ccc2NC(=O)CNC2CCCCC2C)cc(OC)c1 (centres undefined),"inconclusive [inhibitor, single point]",
O=[N+]([O-])c1ccc(NN=Cc2ccccc2O)nc1,active: 5.8 µM,
COc1ccc(-n2c(COc3cccc(C)c3)nnc2SCC(=O)NCc2ccco2)cc1,"inconclusive [inhibitor, full curve, poor fit]",
CC(C)Cc1ccc(CN2CCCC(NC(=O)CCn3cnnn3)C2)cc1 (centres undefined),"inconclusive [inhibitor, single point]",
CCCCCOc1ccc(CSCCNC(=S)Nc2ccccc2)cc1,inactive,
COc1ccc(C(=O)C2CCCN(C(=O)c3ccc(CSC)o3)C2)cc1F (centres undefined),"inconclusive [inhibitor, single point]",

SMILES,Potency,"activity change, negative = growth inhibition"
COc1ccccc1-c1cc(NC(C)=O)c2ncc(-c3ccccc3)n2c1,active: 20.6 µM,
COc1cc(NC(=O)c2cc(-c3ccco3)on2)c(OC)cc1Cl,"inconclusive [inhibitor, single point]",
CCCCCCn1c(CN2CCN(C(=O)c3ccco3)CC2)nc2c1c(=O)n(C)c(=O)n2C,"inconclusive [inhibitor, partial curve, poor fit]",
CCOc1ccc(NC(=O)COc2ccccc2)c([N+](=O)[O-])c1,"inconclusive [inhibitor, single point]",
O=C(NC1CCN(Cc2ccccc2)CC1)C(NS(=O)(=O)c1cccc2nsnc12)c1ccccc1 (centres undefined),"inconclusive [inhibitor, single point]",
Cc1ccc(-n2ncc(C(=O)NCCN3CCc4ccccc4C3)c2C2CCN(C(=O)OC(C)(C)C)CC2)c(C)c1,"inconclusive [inhibitor, single point]",
CC(C(=O)Nc1ccc(Cl)cc1)N1C(=O)NC2(CCCC2)C1=O (centres undefined),"inconclusive [inhibitor, single point]",
Cc1oc(-c2ccc(Cl)cc2)nc1CN1CCCC(C(=O)NCc2cccnc2)C1 (centres undefined),active: 9.2 µM,
COc1ccccc1CNc1ncnc2onc(-c3ccc(Cl)cc3)c12,"inconclusive [inhibitor, single point]",
COc1cc(/C=C2\COC/C(=C\c3cc(OC)c(OC)c(OC)c3)C2=O)cc(OC)c1OC,active: 1.16 µM,
CN(c1nnc(NC(=O)Nc2ccc(Br)cc2)s1)C1CCCCC1,"inconclusive [inhibitor, single point]",
O=C(NCc1ccccc1)c1cccc(S(=O)(=O)N2CCOCC2)c1,inactive,
CCCNC(=O)c1cc(C2CCCCN2C(=O)c2ccc(C(C)C)cc2)on1 (centres undefined),active: 20.6 µM,
Cc1[nH]c2ccccc2c1C1(O)C(=O)N(Cc2ccccc2)c2ccc(Br)cc21 (centres undefined),active: 4.11 µM,
Cc1ccc(S(=O)(=O)N2CCCCC2)cc1NC(=O)c1ccc(Cl)nc1,"inconclusive [inhibitor, single point]",
Cc1ccc(NC(=S)NNC(=S)NC2CCCCC2)cc1,"inconclusive [inhibitor, single point]",
COC(=O)C(NNc1ccccc1)(NC(=O)c1ccc(F)cc1)C(F)(F)F (centres undefined),"inconclusive [inhibitor, single point]",
Cc1noc(C)c1-c1nnc(-c2ccc(OC(F)(F)F)cc2)o1,inactive,
Cc1ccc(NC(=O)Nc2csc3c2CCCC3)c(C)c1,"inconclusive [inhibitor, single point]",
Cc1ccc(Cn2c(C)c(C(=O)NCc3ccc4c(c3)OCO4)sc2=O)cc1,"inconclusive [inhibitor, single point]",
COc1ccc(-n2cc(-c3ccccc3)nc2SC)cc1,"inconclusive [inhibitor, partial curve, poor fit]",
O=C(NC1CCCC1)C(c1ccccn1)N(C(=O)c1csnn1)C1CCCC1 (centres undefined),inactive,
